In the supplement of paper PMC4967469:

Tests used:
Experiment in all cases: Viability of human cancer cell lines after 72 h of drug (GDSC screen)
[1] = compound: C=CCNC1=C2C[C@@H](C)C[C@H](OC)[C@H](O)[C@@H](C)/C=C(\C)[C@H](OC(N)=O)[C@@H](OC)/C=C\C=C(/C)C(=O)NC(=CC1=O)C2=O [17-AAG]; conditions: top dose 1 µM
Procedure: (§1)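 Human cancer cell lines in 384-well plates, medium with 10% serum, drug for 72 h over a 256-fold dose range (nine 2-fold or five 4-fold steps up to the top dose). Adherent lines were fixed and stained with the nucleic acid dye Syto60, suspension lines read with resazurin; signal relative to control wells, capped at 0 and 100%. One two-parameter sigmoid per drug and line, fitted in a mixed model over all curves with the slope shared within a line.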

[2] = compound: CCc1cc(-c2n[nH]c(C)c2-c2ccc3c(c2)OCCO3)c(O)cc1O [CCT018159]; conditions: top dose 10 µM; top dose inferred
Procedure: as §1

[3] = compound: CN(C)Cc1cccc(N=C(c2ccccc2)c2c(O)[nH]c3cc(C(=O)N(C)C)ccc23)c1 [BIX02189]; conditions: top dose 20 µM; top dose inferred
Procedure: as §1

[4] = compound: COC(=O)CNC(=O)C(=O)OC [Dimethyloxalylglycine]; conditions: top dose 4000 µM; top dose inferred
Procedure: as §1

[5] = compound: COc1cccc2c1C(=O)c1c(O)c3c(c(O)c1C2=O)C[C@@](O)(C(=O)CO)C[C@@H]3O[C@H]1C[C@H](N)[C@H](O)[C@H](C)O1 [Doxorubicin]; conditions: top dose 1.024 µM
Procedure: as §1

[6] = compound: COc1cccc2cc(-c3nc([C@H]4CC[C@H](C(=O)O)CC4)n4ncnc(N)c34)[nH]c12 [OSI-027]; conditions: top dose 20 µM
Procedure: as §1

[7] = compound: CS(=O)(=O)c1ccc(C(=O)Nc2ccc(Cl)c(-c3ccccn3)c2)c(Cl)c1 [Vismodegib]; conditions: top dose 10 µM; top dose inferred
Procedure: as §1

[8] = compound: Cc1cnc(Nc2ccc(F)cc2Cl)nc1-c1c[nH]c(C(=O)N[C@H](CO)c2cccc(Cl)c2)c1 [VX-11e]; conditions: top dose 5.12 µM; top dose inferred
Procedure: as §1

[9] = compound: Cc1cnc(Nc2ccc(OCCN3CCCC3)cc2)nc1Nc1cccc(S(=O)(=O)NC(C)(C)C)c1 [TG101348]; conditions: top dose 10.24 µM
Procedure: as §1

[10] = compound: O=C(c1ccc(C(=O)N2CCC(N3CCCC3)CC2)c(Nc2ccccc2)c1)N1CCC(N2CCCC2)CC1 [UNC1215]; conditions: top dose 1 µM; top dose inferred
Procedure: as §1

| Cell Line | AUC [1] | IC50 [1] | AUC [2] | IC50 [2] | AUC [3] | IC50 [3] | AUC [4] | AUC [5] | IC50 [5] | AUC [6] | IC50 [6] | AUC [7] | IC50 [7] | AUC [8] | IC50 [8] | AUC [9] | IC50 [9] | AUC [10] | IC50 [10] | IC50 [4] |
| --- | --- | --- | --- | --- | --- | --- | --- | --- | --- | --- | --- | --- | --- | --- | --- | --- | --- | --- | --- | --- |
| OAW-42 (ovary, adherent) | 0.886 | > 1 µM | 0.926 | > 10 µM | 0.98 | > 20 µM | 0.581 | 0.62 | 0.141 µM | 0.5 | 1.25 µM | 0.986 | > 10 µM | 0.983 | > 5.12 µM | 0.873 | > 10.2 µM | 0.984 | > 1 µM | – |
| C3A (liver, adherent) | 0.797 | 0.495 µM | 0.867 | 9.65 µM | 0.988 | > 20 µM | 0.405 | 0.786 | 0.461 µM | 0.986 | > 20 µM | 0.988 | > 10 µM | 0.988 | > 5.12 µM | 0.988 | > 10.2 µM | 0.987 | > 1 µM | 136 µM |
| KARPAS-620 (haematopoietic neoplasm, suspension) | 0.96 | > 1 µM | 0.947 | > 10 µM | 0.832 | 10.3 µM | 0.492 | 0.772 | 0.34 µM | 0.191 | 0.18 µM | 0.991 | > 10 µM | 0.966 | > 5.12 µM | 0.486 | 0.588 µM | 0.988 | > 1 µM | 238 µM |
| PF-382 (T-cell lymphoblastic leukaemia, suspension) | 0.99 | > 1 µM | 0.965 | > 10 µM | 0.797 | 8.13 µM | 0.393 | 0.514 | 0.0696 µM | 0.351 | 0.512 µM | 0.991 | > 10 µM | 0.945 | > 5.12 µM | 0.623 | 1.33 µM | 0.99 | > 1 µM | 132 µM |
| NCI-H2444 (non-small cell lung carcinoma, adherent) | 0.892 | > 1 µM | 0.965 | > 10 µM | 0.98 | > 20 µM | 0.948 | 0.977 | > 1.02 µM | 0.977 | > 20 µM | 0.988 | > 10 µM | 0.962 | > 5.12 µM | 0.943 | > 10.2 µM | 0.987 | > 1 µM | > 4000 µM |
| KE-37 (lymphoblastic leukaemia, suspension) | 0.961 | > 1 µM | 0.872 | 5.88 µM | 0.755 | 5.4 µM | 0.193 | 0.317 | 0.0227 µM | 0.148 | 0.154 µM | 0.989 | > 10 µM | 0.932 | > 5.12 µM | 0.488 | 0.598 µM | 0.987 | > 1 µM | 41.9 µM |
| SU-DHL-5 (B-cell lymphoma, suspension) | 0.971 | > 1 µM | 0.886 | 6.35 µM | 0.939 | > 20 µM | 0.073 | 0.084 | 0.00488 µM | 0.123 | 0.132 µM | 0.954 | > 10 µM | 0.816 | 2 µM | 0.528 | 0.747 µM | 0.993 | > 1 µM | 17 µM |
| KYSE-520 (oesophagus, adherent) | 0.634 | 0.166 µM | 0.851 | > 10 µM | 0.953 | > 20 µM | 0.634 | 0.645 | 0.186 µM | 0.684 | 4.91 µM | 0.971 | > 10 µM | 0.947 | > 5.12 µM | 0.842 | > 10.2 µM | 0.966 | > 1 µM | 668 µM |
| EJM (lymphoid neoplasm, semi-adherent) | 0.966 | > 1 µM | 0.937 | > 10 µM | 0.949 | > 20 µM | 0.448 | 0.862 | 0.657 µM | 0.205 | 0.204 µM | 0.992 | > 10 µM | 0.954 | > 5.12 µM | 0.8 | 4.07 µM | 0.988 | > 1 µM | 185 µM |
| NCI-H1869 (lung squamous cell carcinoma, adherent) | 0.632 | 0.153 µM | 0.94 | > 10 µM | 0.944 | > 20 µM | 0.577 | 0.904 | > 1.02 µM | 0.783 | 9.58 µM | 0.985 | > 10 µM | 0.96 | > 5.12 µM | 0.831 | 7.67 µM | 0.982 | > 1 µM | 417 µM |
| EGI-1 (biliary tract, adherent) | 0.951 | > 1 µM | 0.898 | > 10 µM | 0.97 | > 20 µM | 0.531 | 0.745 | 0.408 µM | 0.468 | 0.999 µM | 0.968 | > 10 µM | 0.85 | > 5.12 µM | 0.925 | > 10.2 µM | 0.979 | > 1 µM | 312 µM |
| OPM-2 (myeloma, suspension) | 0.992 | > 1 µM | 0.933 | > 10 µM | 0.727 | 4.75 µM | 0.199 | 0.835 | 0.505 µM | 0.625 | 2.58 µM | 0.994 | > 10 µM | 0.962 | > 5.12 µM | 0.747 | 2.76 µM | 0.993 | > 1 µM | 40.5 µM |
| AM-38 (glioma, semi-adherent) | 0.712 | 0.252 µM | 0.918 | > 10 µM | 0.917 | > 20 µM | 0.656 | 0.755 | 0.355 µM | 0.322 | 0.394 µM | 0.986 | > 10 µM | 0.781 | 2.18 µM | 0.865 | 9.39 µM | 0.983 | > 1 µM | 684 µM |
| CMK (acute myeloid leukaemia, suspension) | 0.966 | > 1 µM | 0.937 | > 10 µM | 0.801 | 8.08 µM | 0.392 | 0.535 | 0.0786 µM | 0.206 | 0.204 µM | 0.984 | > 10 µM | 0.848 | 2.96 µM | 0.398 | 0.353 µM | 0.988 | > 1 µM | 133 µM |
| OSC-20 (head and neck, adherent) | 0.585 | 0.112 µM | 0.896 | > 10 µM | 0.948 | > 20 µM | 0.177 | 0.42 | 0.0371 µM | 0.673 | 4.2 µM | 0.98 | > 10 µM | 0.959 | > 5.12 µM | 0.953 | > 10.2 µM | 0.971 | > 1 µM | 21 µM |
| KYSE-510 (oesophagus, adherent) | 0.484 | 0.0569 µM | 0.809 | 4.19 µM | 0.984 | > 20 µM | 0.407 | 0.277 | 0.017 µM | 0.957 | > 20 µM | 0.957 | > 10 µM | 0.984 | > 5.12 µM | 0.978 | > 10.2 µM | 0.992 | > 1 µM | 145 µM |
| SAT (head and neck, adherent) | 0.59 | 0.126 µM | 0.83 | > 10 µM | 0.945 | > 20 µM | 0.836 | 0.874 | > 1.02 µM | 0.965 | > 20 µM | 0.896 | > 10 µM | 0.898 | > 5.12 µM | 0.784 | 7.23 µM | 0.961 | > 1 µM | > 4000 µM |
| IMR-5 (neuroblastoma, adherent) | 0.992 | > 1 µM | 0.989 | > 10 µM | 0.868 | 13.6 µM | 0.533 | 0.399 | 0.0355 µM | 0.669 | 3.39 µM | 0.987 | > 10 µM | 0.991 | > 5.12 µM | 0.727 | 2.5 µM | 0.986 | > 1 µM | 303 µM |
| NKM-1 (acute myeloid leukaemia, suspension) | 0.668 | 0.187 µM | 0.824 | 6.17 µM | 0.829 | 13 µM | 0.393 | 0.374 | 0.0284 µM | 0.118 | < 0.0781 µM | 0.928 | > 10 µM | 0.882 | > 5.12 µM | 0.39 | 0.316 µM | 0.957 | > 1 µM | – |
| FU-OV-1 (ovary, adherent) | 0.916 | > 1 µM | 0.935 | > 10 µM | 0.937 | > 20 µM | 0.841 | 0.845 | > 1.02 µM | 0.729 | 7.02 µM | 0.958 | > 10 µM | 0.905 | > 5.12 µM | 0.645 | 1.84 µM | 0.976 | > 1 µM | > 4000 µM |
| KP-2 (pancreas, adherent) | 0.392 | 0.0309 µM | 0.986 | > 10 µM | 0.972 | > 20 µM | 0.376 | 0.607 | 0.129 µM | 0.506 | 1.3 µM | 0.986 | > 10 µM | 0.974 | > 5.12 µM | 0.828 | 6.99 µM | 0.984 | > 1 µM | 111 µM |
| NCI-H209 (small cell lung carcinoma, suspension) | 0.986 | > 1 µM | 0.957 | > 10 µM | 0.868 | > 20 µM | 0.705 | 0.446 | 0.0451 µM | 0.523 | 1.45 µM | 0.982 | > 10 µM | 0.973 | > 5.12 µM | 0.822 | 6.55 µM | 0.973 | > 1 µM | 993 µM |
| RCC10RGB (kidney, adherent) | 0.948 | > 1 µM | 0.951 | > 10 µM | 0.819 | > 20 µM | 0.647 | 0.946 | > 1.02 µM | 0.736 | 11.8 µM | 0.964 | > 10 µM | 0.915 | > 5.12 µM | 0.931 | > 10.2 µM | 0.967 | > 1 µM | 952 µM |

A lower IC50 marks a more sensitive line; fits outside the tested doses are given as limits. For AUC the same curve is integrated over the 256-fold range of doses and scaled to a fraction: 1 means no effect, lower means more sensitive. For some assays here: Any top dose called inferred was derived from the fitted curves, not read from the paper.
